Reference: article PMC4336329 (PLoS ONE, 2015)
About 14,000 (4.5%) of roughly 310,000 compounds showed an effect of 50% or more. Effects have a minus sign here. This is one part of the list.

target: human ether-à-go-go-related gene (hERG) potassium channel (human, UniProt Q12809); assay: primary screen, population patch clamp on CHO cells stably expressing hERG
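Note: peak tail current of the secondary pulse compared with the same well before compound.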

Sequence of human ether-à-go-go-related gene (hERG) potassium channel (Q12809 whole entry, looked up): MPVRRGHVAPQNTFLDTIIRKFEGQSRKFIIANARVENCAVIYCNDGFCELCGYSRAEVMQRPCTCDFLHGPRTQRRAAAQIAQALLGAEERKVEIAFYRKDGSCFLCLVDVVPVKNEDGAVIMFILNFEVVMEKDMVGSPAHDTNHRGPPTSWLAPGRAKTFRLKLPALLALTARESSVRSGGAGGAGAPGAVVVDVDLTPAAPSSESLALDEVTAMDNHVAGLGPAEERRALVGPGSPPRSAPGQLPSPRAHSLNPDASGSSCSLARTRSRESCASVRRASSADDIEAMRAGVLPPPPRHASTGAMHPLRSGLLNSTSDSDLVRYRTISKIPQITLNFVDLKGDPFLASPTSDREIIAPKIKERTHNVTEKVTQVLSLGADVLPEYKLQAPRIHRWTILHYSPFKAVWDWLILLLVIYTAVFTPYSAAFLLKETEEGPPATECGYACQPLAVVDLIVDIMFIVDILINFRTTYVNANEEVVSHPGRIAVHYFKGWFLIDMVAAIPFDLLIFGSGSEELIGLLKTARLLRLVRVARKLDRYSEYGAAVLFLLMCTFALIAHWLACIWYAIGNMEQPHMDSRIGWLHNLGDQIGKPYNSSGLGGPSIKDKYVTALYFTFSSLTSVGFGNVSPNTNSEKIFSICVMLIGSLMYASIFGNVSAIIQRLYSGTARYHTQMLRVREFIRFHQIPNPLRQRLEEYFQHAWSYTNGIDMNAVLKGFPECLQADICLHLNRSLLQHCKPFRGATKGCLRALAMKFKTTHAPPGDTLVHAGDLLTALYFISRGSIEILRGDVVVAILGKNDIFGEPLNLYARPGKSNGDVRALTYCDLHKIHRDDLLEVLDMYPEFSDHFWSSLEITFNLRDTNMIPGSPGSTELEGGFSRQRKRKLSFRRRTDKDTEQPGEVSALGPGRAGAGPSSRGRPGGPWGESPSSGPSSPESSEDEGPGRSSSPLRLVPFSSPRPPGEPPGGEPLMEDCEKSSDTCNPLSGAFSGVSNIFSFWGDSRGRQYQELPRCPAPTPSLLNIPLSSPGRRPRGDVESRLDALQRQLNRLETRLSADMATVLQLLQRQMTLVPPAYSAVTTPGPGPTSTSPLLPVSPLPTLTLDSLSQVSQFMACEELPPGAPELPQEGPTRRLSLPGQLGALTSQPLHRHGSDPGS

Point of comparison: `c1ccc(CCn2nnnc2C(c2cccs2)N2CCOCC2)cc1` (centres unmarked), “hERG current change (%, negative = inhibition) at 10uM” value -1.9%. Against it:
- Cc1cccc(C)c1OCC(=O)NCC1COc2ccccc2O1 (centres unmarked) — lower, -27.8%
- Cc1ccc(C(=O)OC(C)C(=O)NC2CCCCC2C)cc1S(=O)(=O)N1CCCCC1 (centres unmarked) — lower, -9.95%
- CC(C)N(C(=O)Cn1cc(SCC(=O)NCC2CCCO2)c2ccccc21)C(C)C (centres unmarked) — lower, -41.6%
- CCOC(=O)c1cccc(NC(=O)/C=C/c2ccc([N+](=O)[O-])cc2)c1 — lower, -17.2%
- COc1ccc(Nc2nc(-c3ccccc3)c(C(=O)Nc3cccnc3)s2)cc1 — lower, -8.53%
- CCCCCCCn1c2c(c(=N)c3ccccc31)CCC2.I — lower, -81.4%
- CC1(C)CC(=O)C=C(c2ccc(F)nc2)C1 — higher, 9.88%
- C#CCOCCOCCOCCNc1nc(N2CCOCC2)nc(N2CCN(C(=O)CCCCCCCCCCNC(=O)[C@@H](CCSC)n3cc(CCO)nn3)CC2)n1 — lower, -19.6%
- CC1CCCN(CCCN2C(=O)C3C(C(=O)Nc4cccc(Cl)c4)C4C=CC3(O4)C2C(=O)NC2CCCCC2)C1 (centres unmarked) — higher, 1.52%
- CCOC(=O)C(=O)N=Nc1c(O)n(C)c2ccccc12 — higher, 18.9%
- COc1ccccc1NC(=O)c1ccc(N2CC3CC(C2)c2cccc(=O)n2C3)c(NC(=O)c2ccncc2)c1 (centres unmarked) — higher, 6.49%
- CC1CCCN(c2ccc(C(=O)Nc3ccc4c(c3)OCO4)cc2[N+](=O)[O-])C1 (centres unmarked) — lower, -2.94%
- COc1cc(C(=O)Nc2ccccc2N2CCCCC2)cc(OC)c1OC — lower, -6.57%
- CC(C)C(=O)Nc1ccc(C(=O)NNC(=O)C(c2ccccc2)c2ccccc2)cc1 — higher, -0.323%
- Cc1sc2ncnc(N/N=C/c3cccc(O)c3)c2c1C — lower, -61.9%
- COCC(=O)NC(C)c1nc2ccccc2[nH]1 (centres unmarked) — lower, -2.57%
- CSCCC(NC(=O)c1ccccc1Br)C(=O)Nc1ccc(C)cc1 (centres unmarked) — lower, -3.11%
- CCOC(=O)COc1ccc([N+](=O)[O-])cc1 — lower, -5.07%
- CNS(=O)(=O)c1ccc2c3c(cccc13)C(=O)N2 — higher, 9.73%
- CCCC(=O)C1=C(O)C(C(=O)OC)C(C)(C)CC1=Nc1ccc(OC)cc1 (centres unmarked) — lower, -48.7%
- CN(CC(=O)Nc1ccccc1Cl)C(=O)CCc1nc2ccccc2c(=O)[nH]1 — lower, -32.2%
- Cc1ccnc(SCC(=O)c2cccc([N+](=O)[O-])c2)n1 — lower, -5.67%
- CN(C)C1=NCCN1CCC1CCCCC1 — higher, 0.705%
- COc1ccc(N2CCN(C(=O)c3cc(C)oc3C)CC2)cc1 — higher, 12.7%
- COc1ccccc1Oc1cn[nH]c1-c1ccc(OCC(=O)NN)cc1O — higher, 19.9%
- O=C(CSc1ncc(C(F)(F)F)cc1Cl)N1CCN(S(=O)(=O)c2ccc3ccccc3c2)CC1 — higher, -1.53%
- CCN1C(=O)N[C@H](c2ccc(Br)cc2)C(C(C)=O)=C1C — higher, 5.94%
- O=C(CSc1nc2cc(Cl)ccc2s1)N1CCN(C(=O)c2ccco2)CC1 — lower, -71.6%
- Cc1ccc(S(=O)(=O)C2(C(=O)N(C)C3CCCCC3)CC2)cc1 — lower, -3.32%
- COc1ccccc1NC(=O)C(C)Nc1ccc(C)c(Cl)c1 (centres unmarked) — higher, 6.45%
- Cc1cc(OCCCC(=O)N2CCCCC2)cc(C)c1Cl — lower, -5.69%
- COc1cc(/C=N/NC(=O)c2ccncc2)cc2c1OCO2 — higher, 16.2%
- COCCn1c(N)c(N(Cc2ccccc2)C(=O)c2cc3ccccc3o2)c(=O)[nH]c1=O — higher, 18.1%
- O=C(CNCC1CCCO1)Nc1ccccc1N1CCOCC1.O=C(O)C(=O)O (centres unmarked) — higher, 14.8%
- COC(=O)c1sccc1N/N=C(\C)c1ccc(F)c(Cl)c1 — higher, 6.09%
- CCO[C@H]1OC(C(=O)NC2CC2)=C[C@@H](C2CCCCC2)[C@@H]1CCCO — lower, -21.7%
- COc1cc(CN2CCCC(C(=O)c3ccc(SC)cc3)C2)cc(Cl)c1O (centres unmarked) — lower, -72.8%
- O=C(COC(=O)/C=C/c1ccc(C(F)(F)F)cc1)NCCC1=CCCCC1 — higher, 4.39%
- CC(C)CN(C(=O)CCC(=O)OCc1ccc(Cl)cc1Cl)c1c(N)n(CC(C)C)c(=O)[nH]c1=O — lower, -47.3%
- Cc1cccc(NC2=NCCCS2)c1C — higher, 15%
- Cc1ccc(S(=O)(=O)N(C)C)cc1NC(=O)COC(=O)C1COc2ccccc2O1 (centres unmarked) — higher, 7.22%
- O=C1c2ccccc2C(=O)C12OC2c1cccc2ccccc12 (centres unmarked) — lower, -69.2%
- O=C(Cn1nnc2ccccc2c1=O)NCCc1ccc(Cl)cc1Cl — lower, -7.66%
- CCOC(=O)c1ccc(Oc2nc(N(C)C)nc(N(C)C)n2)cc1 — higher, 10.3%
- CCCc1cc(=O)n2nc(N3CCC(C(=O)Nc4cccc(C(C)=O)c4)CC3)sc2n1 — higher, 6.07%
- CC1CCN(C(=O)c2ccc3ccccc3c2)CC1 — higher, 7.46%
- Cc1nonc1OCCNC(=O)C12CC3CC(CC(C3)C1)C2 — lower, -9.87%
- CCn1c(SC(C)C(=O)N2CCOCC2)nc2sc(C)c(C)c2c1=O (centres unmarked) — higher, 3.37%
- O=C(O)C1CCN(C(=O)CCc2ccccc2)CC1 — higher, 4.94%
- COC(=O)N/C(C)=C1/NC(=O)c2ccccc2C(c2ccccc2)N1 (centres unmarked) — lower, -20.5%
- CCN(CC)Cc1c(O)ccc2cc(-c3nc4ccccc4n3C)c(=O)oc12 — higher, 8.83%
- N#Cc1nc(COc2ccccc2Cl)oc1N1CCCC1 — lower, -32.9%
- CCCCCCCSc1nc(N)cc(=O)[nH]1 — higher, 8.28%
- O=C(O)C(CCCCN1C(=O)C2C3C=CC(C3)C2C1=O)N1C(=O)C2C3C=CC(C3)C2C1=O (centres unmarked) — higher, 2.41%
- CC(C)N1C/C(=C/c2ccsc2)C(=O)/C(=C/c2ccsc2)C1 — lower, -47.4%
